Measurements reported in PubChem BioAssay AID1508624 (National Center for Advancing Translational Sciences (NCATS), 2021).
Hit rate of the full screen: of about 48,000 compounds, about 120 (0.25%) were called active. Inconclusive results (about 4%) are left out. Calls come from the whole dose curve; as a rule, active = well fitted activation curve with a large enough effect; inconclusive = small, poorly fitted or top-dose-only effect, or another doubt; inactive = no such curve, though single readings can be large or run the other way. This is one part of the list.

Assay: Primary qHTS for Identification of Small Molecule Activators of Huntingtin-Antisense Promoter Activity; note: nearly all actives have a fitted effect of over 55% in size
Conditions: HEK293 HTT-AS promoter firefly luciferase reporter (activity 0% = vehicle and -100% = no light), 24 h; series mostly up to 57.5 µM; activity change, positive = activation: at the top concentration
Method in brief: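 HEK293 Fluc reporter, 2,500 cells/well, 24 h pre-culture; cpds up to 57.5 uM final, 24 h 37 degrees C; Dual-Glo, 10 min RT; normalized vehicle = 0%, zero RLU = -100%.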

Activity change, positive = activation, inactive:
CCCN(C(=O)c1c(C)oc2ncnc(N3CCOCC3)c12)c1ccc(Cl)c(Cl)c1 -9.34%, O=S(=O)(NCC(c1ccco1)N1CCN(c2ccccc2)CC1)c1ccccc1 (stereo unspecified) -22.7%, CCOc1ccc(Cn2nnc(C(=O)Nc3ccc(Cl)cc3)c2N)cc1 4.55%, COc1ccccc1CNC(=O)C1CCN(C(=O)c2sccc2-n2cccc2)CC1 -11.8%, CN(C1CCCCC1)S(=O)(=O)c1ccc2c(c1)c(=O)c(C(=O)NCc1ccc(F)cc1)cn2C -6.67%, CCn1ccc2c(OCC(=O)Nc3ccc(C(C)=O)cc3)cccc2c1=O -8.66%, COc1ccccc1CNC(=O)c1cc2c(-c3ccc(Cl)cc3)nn(C)c2s1 -19.3%, CCc1ccccc1NC(=O)CSc1nnc(-c2ccccc2)c(-c2ccccc2)n1 -33.7%, O=C(CN(c1ccc(Cl)c(C(F)(F)F)c1)S(=O)(=O)c1ccccc1)Nc1cccnc1 -27.6%, COc1cc(OC)cc(-c2cc3nc(C)c(CCC(=O)Nc4ccccc4OC)c(C)n3n2)c1 -83.4%, COCCNC(=O)Cn1c(=O)c2cccn2c2ccc(F)cc21 -3.7%, CCCCc1ccc(-n2nc3cc(Cl)c(NC(=O)c4ccc(OC)cc4)cc3n2)cc1 10.8%, CCOC(=O)c1ccc2nc(C)cc(Nc3ccc(OC(C)C)cc3)c2c1 -30.9%, Cc1ccc(-n2cnc3cc(C(=O)NCc4ccc(F)cc4)ccc32)c(C)c1 -24.3%, Cc1cccc(C(=O)NCCc2nc3ccccc3n2Cc2ccc(Cl)cc2)c1 -34%, Cc1ccc(OC(C)C(=O)N2CCN(CCc3ccncc3)CC2)cc1C (stereo unspecified) -17.3%, CCOC(=O)c1cccc(NS(=O)(=O)c2ccc3[nH]c4c(c3c2)CCCC4)c1 -38.9%, Cc1ccc(NC(=O)c2ccc(Cl)cc2Cl)c(C(=O)c2ccccc2)c1 -25%, CCOc1ccc(-c2cc3c(=O)n(Cc4nc(-c5ccccc5OCC)oc4C)ccn3n2)cc1Cl -14%, O=S(=O)(NCc1ccc(Cl)cc1)c1ccc2[nH]c3c(c2c1)CCCC3 -36.4%, Cc1ccc(Cn2c(C)c(CNCC(C)c3ccccc3)c(C(=O)O)c2C)cc1 (stereo unspecified) -20.3%, CCC(CC)C(=O)Nc1ccccc1SCc1cc(=O)c2cccc(C)c2[nH]1 -18.2%, COCCCNC(=O)C1CCC(Cn2c(=O)c3sccc3n(C)c2=O)CC1 (stereo unspecified) -7.38%, Cc1ccc(NC(=O)CN2CCN(c3ccccc3F)CC2)cc1F -6.68%, CCOC(=O)C1CCN(c2nc3c(S(=O)(=O)c4ccccc4)nnn3c3ccc(Cl)cc23)CC1 -22.2%, O=c1c(=O)n(-c2ccccc2)ccn1Cc1c(F)cccc1Cl -7.58%, CCOc1cccc(NC(=O)c2sc3nc(-c4ccc(F)cc4)ccc3c2N)c1 -3.49%, COc1cc(CNCCSc2nnnn2C)ccc1OCc1ccc(C)cc1 14.3%, CCSc1ncc(Cl)c(C(=O)N(Cc2ccccc2)c2ccc(OC)cc2)n1 -46.1%, O=C(COCc1cc(-c2cccs2)on1)N1CCN(c2ccc(F)cc2)CC1 2.25%, Cc1nc2cccnc2n1C1CCN(C(=O)Nc2ccccc2)CC1 -2.5%, Cc1cc(C)cc(N2CC(c3nnc(NC(=O)c4ccco4)s3)CC2=O)c1 (stereo unspecified) -20.3%, COc1cc(C(=O)Nc2ccc(-n3c(C)nc4ccccc4c3=O)cc2)cc(OC)c1OC -6.37%, Cc1nc(-c2ccc(Cl)cc2)oc1COC(C)(C)C(=O)O -9.21%, O=c1c2oc3ccccc3c2n(Cc2ccc(F)cc2)c(=O)n1Cc1ccco1 -12.6%, CCCCn1c(=NC(=O)c2c(-c3c(F)cccc3Cl)noc2C)c(C(=O)OCC)cc2c(=O)n3ccccc3nc21 -15.9%, Cc1ccc(-c2noc(-c3ccc(NCc4cccnc4)c([N+](=O)[O-])c3)n2)cc1 9.12%, CCOC(=O)C1CCN(C(c2ccc(OCC)cc2)c2c(O)cc(C)n(CCOC)c2=O)CC1 (stereo unspecified) 4.13%, COc1ccc(CNS(=O)(=O)c2cc(Br)cc3c2N(C(C)=O)C(C)C3)cc1 (stereo unspecified) -20.1%, O=C(NCc1cccc(F)c1)c1ccc(CN2CC(=O)N3CCCCC3C2=O)cc1 (stereo unspecified) -19.5%, CC(=O)C1=C(c2ccc(Cl)c(Cl)c2)N(C(C)=O)n2c(nnc2-c2ccccc2)S1 -1.51%, O=C(COCc1cc(-c2ccc(F)cc2)on1)Nc1cc(Cl)ccc1O -21.4%, Cc1ccccc1-n1nc(CO)c(C(=O)NCC(c2ccccc2)c2ccccc2)n1 -43.6%, COc1ccc(CCNC(=O)CCCn2c(=O)c3ccccc3n(Cc3ccccc3C#N)c2=O)cc1OC -5.26%, COc1cccc2cc(-c3nc(Nc4cccc(C)c4C)sc3C)c(=O)oc12 -20.1%, Nc1nonc1C(=O)NCCNCc1ccccc1F -7.31%, COc1cccc(C2C=C(c3ccccc3)Nc3c(C(=O)Nc4ccccc4)cnn32)c1OC (stereo unspecified) -22.9%, COc1cc(C(CC(=O)Nc2cccc(C(C)=O)c2)N2Cc3ccccc3C2=O)cc(OC)c1OC (stereo unspecified) -34.8%, CC1(C)[C@H](C(=O)O)N2C(=O)C[C@H]2S1(=O)=O, CC(=O)Nc1nonc1-c1nnc(SCC(=O)Nc2cc(Cl)ccc2C)n1C -16.1%, CCOC(=O)c1c(NC(=O)/C=C/c2ccc(C)cc2)sc(C(C)=O)c1C -5.3%, COc1ccc(C(=O)c2sc3nc(-c4ccc(C)cc4)cc(C(F)(F)F)c3c2N)cc1 -15%, CCCCc1c(C)nc2c(-c3ccc(Cl)cc3)c(C)[nH]n2c1=O -21%, Cc1ccc(C)c(N2CCN(S(=O)(=O)c3ccc(-c4coc(C)n4)cc3)CC2)c1 -28%, CCOC(=O)C(CC)n1nc(C)c2c(C)n(-c3ccc(C)cc3)nc2c1=O (stereo unspecified) -26.6%, CCCCN(CCCNC(=O)c1cc(Nc2ccc(OC)cc2)nc2ccccc12)Cc1ccccc1 -2.19%, COc1ccc(-n2cc(-c3ccc4c(c3)OCO4)n(CC(=O)Nc3cccc(C)c3C)c2=O)c(OC)c1 -28.5%, Cc1ccc(S(=O)(=O)c2nc(S(=O)(=O)c3ccc(C)cc3)c(NCCCOC(C)C)s2)cc1 -3.31%, O=S(=O)(Nc1ccc(F)c(Cl)c1)c1ccc(Br)s1 -28.4%, CCOC(=O)c1ccc(N2C(=O)c3n[nH]c(-c4cccs4)c3C2c2ccc(CC)cc2)cc1 (stereo unspecified) -81.1%, COc1cc2c3cc1Oc1cc(ccc1O)C[C@@H]1c4c(cc(OC)c(O)c4Oc4ccc(cc4)C[C@@H]3N(C)CC2)CC[N+]1(C)C -11%, Cc1cccc(N2CCN(C(=O)Cn3ncc4c5ccccc5n(C)c4c3=O)CC2C)c1 (stereo unspecified) -6.74%, O=c1c(S(=O)(=O)c2ccccc2)cn(Cc2ccc(F)cc2)c2cc(N3CCOCC3)c(F)cc12 -10.1%, Cc1cc(Nc2ncc3c(n2)N(C)C(=O)N(c2cc(NC(=O)c4cccc(C(F)(F)F)c4)ccc2C)C3)n(C)n1 -19.6%, CC(C)CC(=O)Nc1ccccc1OCc1cc(=O)n2ccccc2n1 -7.21%, CC(=O)N1CCc2c(sc3c2c(=O)n(-c2cc(Cl)ccc2C)c(=O)n3Cc2ccccc2F)C1 -35.1%, O=C(Nc1ccc(Br)cc1F)N1CCC(CN2CCc3ccccc3C2)CC1 -5.87%, COC(=O)c1cc(Cl)ccc1NC(=O)CSc1ncc(S(=O)(=O)c2ccc(Br)cc2)c(=O)[nH]1 -5.51%, COc1ccc(C(=O)COC(=O)CCCC(=O)Nc2cc(C(F)(F)F)ccc2Cl)cc1 -6.24%, COc1ccc(OCC(=O)OCc2cc(=O)n3nc(C4CC4)sc3n2)cc1 -14.7%, CCCCOC(=O)c1ccc(NC(=O)c2cc(-c3cccs3)on2)cc1 -13.1%, CCOC(=O)c1c(NC(=O)/C=C/c2ccc(C)cc2)sc2c1CCCC2 -11%, O=C(NCCc1ccc(Cl)cc1)c1cc(-c2ccc(Cl)cc2)n[nH]1 -6.66%, Cc1ccc(CNC(=O)CCCc2nnc3n(C)c(=O)c4sccc4n23)cc1 -0.545%, CCC(C)NC(=O)c1ccc2nc(CCc3ccccc3)oc2c1 (stereo unspecified) 3.16%, Cc1ccc(NC(=O)C(=O)NCC(c2ccc3c(c2)OCO3)N2CCOCC2)cc1C (stereo unspecified) -6.92%, Cn1c(=O)c2c(nc(NCCc3ccccc3)n2Cc2ccc(Cl)cc2)n(C)c1=O -40.3%, Cc1cccc(C(=O)Nc2sc3c(c2C(=O)NC(C)C)CCCC3)c1 -31.5%, CCOC(=O)c1cc(S(=O)(=O)NCc2cccc(Cl)c2)[nH]n1 12.4%, O=C(O)c1ccc(-c2c[nH]c3ncc(-c4ccccc4)cc23)cc1C1CCCC1 -11.3%, CCOC(=O)c1cnc2cc(F)c(F)cc2c1Nc1ccccc1O -12.5%, CC(C)(C)OC(=O)N1CCC(c2c(C(=O)N3CCCCC3)cnn2-c2cccc(F)c2)CC1 0%, Nc1nnnn1-c1ccccc1 -8.79%, CC(=O)c1ccc(N2CCN(C(=O)CCc3nnc4n(C)c(=O)c5sccc5n34)CC2)cc1 -23.2%, CCCCn1c(SCC(=O)Nc2ccc(OCC)cc2)nc2ccsc2c1=O -5.35%, COc1cc(OC)c(NC(=O)c2noc3c2CSc2ccccc2-3)cc1Cl -5.67%, Cc1ccc(C)c(NC(=O)CSc2nnc(-c3cc4occc4n3C)n2-c2ccccc2C)c1 -25.7%, Cc1ccc(NS(=O)(=O)c2cc3[nH]c(=O)c(=O)[nH]c3cc2C)cc1N(C)C -20.9%, Cc1ccc(CNC(=O)CSc2ncc3c(n2)-c2ccc(Cl)cc2N(Cc2ccccc2)S3(=O)=O)cc1 10.7%, Cc1ncc(CO)c(CO)c1O -13.7%, Cc1ccc(NC(=O)CCCn2c(=O)c3cccn3c3cccnc32)cc1C -7.02%, CCc1ccccc1NC(=O)[C@@H](c1ccccc1)N1Cc2ccccc2C1=O -15.5%, COCCCNC(=O)c1ccc2c(c1)nc(C)n2-c1cccc(C)c1 -19.6%, O=C(Nc1ccc(C(=O)OCc2cc(=O)n3nc(C4CC4)sc3n2)cc1)c1cccc(F)c1 0%, CCN(c1ccccc1)S(=O)(=O)c1ccc(NC(=O)c2cc(=O)c3ccccc3o2)cc1 -9.2%, O=C(Nc1ccc(F)cc1)C1CCN(S(=O)(=O)c2ccc3c(c2)CCCN3C(=O)C2CCC2)CC1 -29.9%
